# Results: publication PMC517496
# Amino acid sequences for entries named in this document (tags omitted). A change or cut given only in a name is not applied to a line headed by its entry. Residues count along the entry.
# UniProt Q09472: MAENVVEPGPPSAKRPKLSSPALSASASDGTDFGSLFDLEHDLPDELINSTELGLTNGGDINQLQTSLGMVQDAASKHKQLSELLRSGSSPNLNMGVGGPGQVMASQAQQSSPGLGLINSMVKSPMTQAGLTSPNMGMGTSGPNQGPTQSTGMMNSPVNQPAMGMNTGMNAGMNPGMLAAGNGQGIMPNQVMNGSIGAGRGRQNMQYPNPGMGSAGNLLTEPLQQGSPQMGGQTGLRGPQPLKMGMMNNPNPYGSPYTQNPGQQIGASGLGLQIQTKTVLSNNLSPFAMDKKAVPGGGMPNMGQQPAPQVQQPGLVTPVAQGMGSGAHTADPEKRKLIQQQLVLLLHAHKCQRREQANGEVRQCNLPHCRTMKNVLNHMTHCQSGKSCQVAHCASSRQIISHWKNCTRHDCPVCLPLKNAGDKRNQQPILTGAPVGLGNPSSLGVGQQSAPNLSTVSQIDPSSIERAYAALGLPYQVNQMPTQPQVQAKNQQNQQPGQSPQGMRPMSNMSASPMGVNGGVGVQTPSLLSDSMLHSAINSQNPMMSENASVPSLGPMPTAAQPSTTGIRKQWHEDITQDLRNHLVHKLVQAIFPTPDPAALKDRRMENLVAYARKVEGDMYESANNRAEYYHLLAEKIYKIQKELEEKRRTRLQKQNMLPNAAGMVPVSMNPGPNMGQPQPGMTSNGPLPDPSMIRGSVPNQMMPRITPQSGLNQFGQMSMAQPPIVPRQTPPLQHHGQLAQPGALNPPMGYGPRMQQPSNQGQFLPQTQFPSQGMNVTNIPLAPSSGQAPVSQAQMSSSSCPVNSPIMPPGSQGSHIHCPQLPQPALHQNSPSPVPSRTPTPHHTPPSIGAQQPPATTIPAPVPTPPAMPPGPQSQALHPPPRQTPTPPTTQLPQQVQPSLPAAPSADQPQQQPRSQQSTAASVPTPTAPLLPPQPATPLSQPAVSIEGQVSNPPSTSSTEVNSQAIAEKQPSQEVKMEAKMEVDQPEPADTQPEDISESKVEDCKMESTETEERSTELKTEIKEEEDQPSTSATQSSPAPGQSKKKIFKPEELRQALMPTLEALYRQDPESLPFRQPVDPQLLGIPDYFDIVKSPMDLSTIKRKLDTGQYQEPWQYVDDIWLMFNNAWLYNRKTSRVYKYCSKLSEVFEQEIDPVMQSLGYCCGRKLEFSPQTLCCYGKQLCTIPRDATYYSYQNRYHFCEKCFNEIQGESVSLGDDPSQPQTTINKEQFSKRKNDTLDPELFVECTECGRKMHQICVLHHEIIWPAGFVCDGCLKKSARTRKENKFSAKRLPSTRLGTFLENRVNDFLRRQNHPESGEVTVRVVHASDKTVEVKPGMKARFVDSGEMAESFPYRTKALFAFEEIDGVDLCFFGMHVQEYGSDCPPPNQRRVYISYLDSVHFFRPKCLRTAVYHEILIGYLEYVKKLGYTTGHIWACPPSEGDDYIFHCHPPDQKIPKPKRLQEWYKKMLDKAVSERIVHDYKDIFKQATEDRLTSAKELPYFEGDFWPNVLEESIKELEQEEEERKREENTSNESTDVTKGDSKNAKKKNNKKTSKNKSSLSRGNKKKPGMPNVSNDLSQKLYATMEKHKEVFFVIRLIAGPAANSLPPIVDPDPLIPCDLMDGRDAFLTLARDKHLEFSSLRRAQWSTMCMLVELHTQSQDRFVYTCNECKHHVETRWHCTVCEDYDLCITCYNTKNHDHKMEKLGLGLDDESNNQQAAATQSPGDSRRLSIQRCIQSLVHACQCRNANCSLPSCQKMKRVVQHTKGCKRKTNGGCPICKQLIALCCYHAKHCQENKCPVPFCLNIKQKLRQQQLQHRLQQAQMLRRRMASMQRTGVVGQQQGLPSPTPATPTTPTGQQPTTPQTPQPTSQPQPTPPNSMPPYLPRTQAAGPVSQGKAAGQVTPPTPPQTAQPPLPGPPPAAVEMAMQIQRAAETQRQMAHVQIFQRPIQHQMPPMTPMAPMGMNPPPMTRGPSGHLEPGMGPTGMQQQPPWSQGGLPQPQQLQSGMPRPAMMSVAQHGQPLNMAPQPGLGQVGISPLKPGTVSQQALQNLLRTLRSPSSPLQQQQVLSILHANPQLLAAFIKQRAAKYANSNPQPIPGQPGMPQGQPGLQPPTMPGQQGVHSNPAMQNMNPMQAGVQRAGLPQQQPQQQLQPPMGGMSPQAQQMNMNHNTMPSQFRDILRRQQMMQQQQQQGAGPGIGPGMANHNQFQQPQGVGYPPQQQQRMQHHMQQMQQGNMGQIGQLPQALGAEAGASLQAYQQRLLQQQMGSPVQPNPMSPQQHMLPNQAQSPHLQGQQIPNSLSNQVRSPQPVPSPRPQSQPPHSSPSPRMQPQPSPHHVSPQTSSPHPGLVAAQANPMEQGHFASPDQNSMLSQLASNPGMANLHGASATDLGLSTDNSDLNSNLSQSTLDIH
# GST-C/H1 fusion protein (p300 328-424, construct no. 9): residues 328-424 of Q09472
# GST-ΔC/H1-KIX fusion protein (p300 436-661, construct no. 10): residues 436-661 of Q09472
# UniProt Q92831: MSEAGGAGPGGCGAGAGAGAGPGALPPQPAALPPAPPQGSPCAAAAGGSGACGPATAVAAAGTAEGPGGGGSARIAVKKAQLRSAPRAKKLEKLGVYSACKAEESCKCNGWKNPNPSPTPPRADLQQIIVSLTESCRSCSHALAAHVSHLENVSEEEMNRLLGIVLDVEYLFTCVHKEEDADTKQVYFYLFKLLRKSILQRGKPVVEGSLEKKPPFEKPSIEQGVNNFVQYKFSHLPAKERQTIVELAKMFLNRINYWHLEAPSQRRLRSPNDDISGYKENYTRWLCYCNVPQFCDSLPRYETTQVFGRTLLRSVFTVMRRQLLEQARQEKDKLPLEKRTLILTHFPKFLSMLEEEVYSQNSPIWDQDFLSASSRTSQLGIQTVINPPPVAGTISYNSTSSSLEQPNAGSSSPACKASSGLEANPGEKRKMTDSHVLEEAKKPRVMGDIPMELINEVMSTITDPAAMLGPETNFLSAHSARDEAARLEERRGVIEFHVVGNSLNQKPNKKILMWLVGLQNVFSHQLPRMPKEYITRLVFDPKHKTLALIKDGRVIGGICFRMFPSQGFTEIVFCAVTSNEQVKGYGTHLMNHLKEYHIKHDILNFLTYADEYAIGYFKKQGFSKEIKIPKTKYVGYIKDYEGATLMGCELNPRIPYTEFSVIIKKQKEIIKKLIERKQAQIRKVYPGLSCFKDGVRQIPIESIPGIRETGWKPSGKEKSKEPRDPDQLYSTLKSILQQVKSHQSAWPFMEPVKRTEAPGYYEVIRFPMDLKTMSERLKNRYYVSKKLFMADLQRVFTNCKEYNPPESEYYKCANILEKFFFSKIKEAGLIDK
# Results are given in words; binding and its absence hold for the method and conditions named. Binding seen in cells or lysates may run through a third protein. Some binding calls cover weakened binding; strength is not graded here.
# T1: Bel1/Tas trans-activator of primate foamy virus (PFV) (primate foamy virus (PFV)) (UniProt P14353)
# T1 sequence: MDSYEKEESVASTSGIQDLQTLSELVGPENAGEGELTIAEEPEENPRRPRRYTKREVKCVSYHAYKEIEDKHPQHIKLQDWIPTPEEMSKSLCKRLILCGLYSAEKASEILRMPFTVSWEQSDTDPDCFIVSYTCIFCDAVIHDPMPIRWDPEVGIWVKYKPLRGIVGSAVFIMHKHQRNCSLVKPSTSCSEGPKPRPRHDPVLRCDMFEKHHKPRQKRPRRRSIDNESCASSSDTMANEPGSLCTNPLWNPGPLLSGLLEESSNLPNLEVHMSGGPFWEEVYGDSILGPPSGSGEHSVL
# B1: Bel1/Tas trans-activator of primate foamy virus (PFV) (protein, UniProt P14353 1-300)
# chain: T1 sequence
# Legend:
# [1] = target: T1, Bel1/Tas trans-activator of primate foamy virus (PFV) (primate foamy virus (PFV)); assay: co-IP; 293T cells cotransfected with SRC-1a and pbel1s; immunoprecipitations and Western blot analysis under different conditions; anti-Bel1 antiserum, immunoblot with antibody against SRC-1
# [2] = target: T1, Bel1/Tas trans-activator of primate foamy virus (PFV) (primate foamy virus (PFV)); assay: co-IP; 293T cells cotransfected with p300FL (10 or 20 ug) and pbel1s, labelled with [35S]-Met and -Cys; precleared lysates precipitated with anti-Bel1/Tas antibody; SDS-PAGE and autoradiography
# [3] = target: T1, Bel1/Tas trans-activator of primate foamy virus (PFV) (primate foamy virus (PFV)); assay: co-IP; 293T cells cotransfected with pbel1s and FLAG-tagged partner; lysis in 150 mM NaCl, 20 mM Tris-HCl pH 7.5, 1% Triton X-100; precipitated with rabbit anti-Bel1 antiserum and protein A-Sepharose, washed three times with lysis buffer; immunoblot with monoclonal anti-FLAG
# [4] = target: GST-ΔC/H1-KIX fusion protein (p300 436-661, construct no. 10) (human) (UniProt Q09472); assay: pull-down; GST fusion bound to glutathione Sepharose 4B mixed with lysate of pbel1s-transfected 293T cells; 4 °C overnight in binding buffer, extensive washing; immunoblot with antibody against Bel1/Tas; only the target purified
# [5] = target: GST-C/H1 fusion protein (p300 328-424, construct no. 9) (human) (UniProt Q09472); assay: as above
Molecule,binding [3],further results
FLAG-SRC-1a (steroid receptor coactivator 1a) (from UniProt Q15788-1 1-1441),–,binding [1]: no binding
"FLAG-p300FL (full-length p300, construct no. 1) (from UniProt Q09472 1-2414)",–,binding [2]: binds
"FLAG-p300ΔN-ΔC/H1-ΔKIX (construct no. 8), residues 1 to 196 of p300 (from UniProt Q09472 1-196) (domain or fragment)",no binding,–
FLAG-PCAF (p300/CBP-associated factor) (from UniProt Q92831 1-832),binds,–
"FLAG-p300-C/H1-ΔKIX (construct no. 6), residues 1 to 424 of p300 (from UniProt Q09472 1-424) (domain or fragment)",binds,–
"FLAG-p300 construct no. 7, residues 1 through 347 of p300 (from UniProt Q09472 1-347) (domain or fragment)",no binding,–
B1,–,binding [4]: no binding; binding [5]: binds
